The list shows a part of the results. Single values are uncertain, as repeats are few or missing.
What was measured:
Assay in all cases: cell count relative to DMSO control; melanoma cells; higher = more viable cells
Conditions in all cases: library dose: standard library concentration; 72 h
SkMel28 = test system: SkMel28
SkMel2 = test system: SkMel2
SkMel30 = test system: SkMel30
SkMel5 = test system: SkMel5
UACC257 = test system: UACC257
UACC62 = test system: UACC62
WM115 = test system: WM115
WM1716 = test system: WM1716
WM1745 = test system: WM1745
WM3526 = test system: WM3526
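Further: cells treated in 1,536-well plates, then fixed and DAPI-stained, with nuclei counted from automated high-throughput microscope images.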

SMILES | cell count (SkMel28) | cell count (SkMel2) | cell count (SkMel30) | cell count (SkMel5) | cell count (UACC257) | cell count (UACC62) | cell count (WM115) | cell count (WM1716) | cell count (WM1745) | cell count (WM3526)
CN(c1ncccc1CNc1nc(Nc2ccc3c(c2)CC(=O)N3)ncc1C(F)(F)F)S(C)(=O)=O + Cc1nc(Nc2ncc(C(=O)Nc3c(C)cccc3Cl)s2)cc(N2CCN(CCO)CC2)n1 [dasatanib] (first compound 0.4 µM, partner dose 0.02 µM) | 22.4% | 77.2% | 98.1% | 43.1% | 49.3% | 76.2% | 59.3% | 50.4% | 22.2% | 88.8%
CN(c1ncccc1CNc1nc(Nc2ccc3c(c2)CC(=O)N3)ncc1C(F)(F)F)S(C)(=O)=O + Nc1nc(F)nc2c1ncn2[C@@H]1O[C@H](CO)[C@@H](O)[C@@H]1O [fludarabine] (first compound 0.4 µM, partner dose 1 µM) | 0.659% | 0.87% | 10.2% | 21.1% | 36.8% | 79.8% | 69% | 46.1% | 50.1% | 17.5%
NC1(c2ccc(-c3nc4ccn5c(=O)[nH]nc5c4cc3-c3ccccc3)cc2)CCC1 + O=C(Nc1cccc(Cl)c1)Nc1ncc(CCNc2ncnc3ccsc23)s1 [SNS314] (first compound 2 µM, partner dose 0.004 µM) | 32.7% | 62.2% | 83.9% | 59.8% | 77.2% | 78.7% | 39.1% | 69.7% | 85.2% | 63.6%
NC1(c2ccc(-c3nc4ccn5c(=O)[nH]nc5c4cc3-c3ccccc3)cc2)CCC1 + C[C@@H]1CCN(C(=O)CC#N)C[C@@H]1N(C)c1ncnc2[nH]ccc12 [CP690550] (first compound 2 µM, partner dose 5 µM) | 73% | 64.7% | 83.2% | 69.6% | 81.3% | 106% | 68.8% | 66.3% | 74.5% | 60.9%
CN(c1ncccc1CNc1nc(Nc2ccc3c(c2)CC(=O)N3)ncc1C(F)(F)F)S(C)(=O)=O + CN(NC(=O)CC(=O)NN(C)C(=S)c1ccccc1)C(=S)c1ccccc1 [STA4783] (first compound 0.4 µM, partner dose 0.03 µM) | 46.2% | 65.9% | 111% | 23.9% | 88.5% | 25.9% | 23.7% | 65.6% | 16.8% | 104%
NC1(c2ccc(-c3nc4ccn5c(=O)[nH]nc5c4cc3-c3ccccc3)cc2)CCC1 + C=CCNC1=C2C[C@@H](C)C[C@H](OC)[C@H](O)[C@@H](C)/C=C(\C)[C@H](OC(N)=O)[C@@H](OC)/C=C\C=C(/C)C(=O)NC(=CC1=O)C2=O [Tanespimycin] (first compound 2 µM, partner dose 0.01 µM) | 45.2% | 69.4% | 90.9% | 66.3% | 92.2% | 68.3% | 13.8% | 63.4% | 71.8% | 68%
CCCS(=O)(=O)Nc1ccc(F)c(C(=O)c2c[nH]c3ncc(Cl)cc23)c1F + Cc1nc(Nc2ncc(C(=O)Nc3c(C)cccc3Cl)s2)cc(N2CCN(CCO)CC2)n1 [dasatanib] (first compound 0.4 µM, partner dose 0.02 µM) | 65.7% | 102% | 104% | 80.8% | 90.4% | 43.3% | 58.1% | 50.8% | 46.8% | 63.5%
CS(=O)(=O)c1ccc(C(=O)Nc2ccc(Cl)c(-c3ccccn3)c2)c(Cl)c1 [vismodegib] + CN(c1ncccc1CNc1nc(Nc2ccc3c(c2)CC(=O)N3)ncc1C(F)(F)F)S(C)(=O)=O [PF562271] (first compound 5 µM, partner dose 0.4 µM) | 74.2% | 91.8% | 86.8% | 69.2% | 97.4% | 38% | 74.5% | 94.6% | 66.1% | 96.5%
NC1(c2ccc(-c3nc4ccn5c(=O)[nH]nc5c4cc3-c3ccccc3)cc2)CCC1 + CC(C)C[C@H](NC(=O)[C@H](Cc1ccccc1)NC(=O)c1cnccn1)B(O)O [Bortezomib] (first compound 2 µM, partner dose 0.005 µM) | 19.4% | 27.6% | 28.4% | 19.1% | 65.6% | 55.8% | 15.8% | 13.3% | 12.5% | 24.2%
CS(=O)(=O)c1ccc(C(=O)Nc2ccc(Cl)c(-c3ccccn3)c2)c(Cl)c1 [vismodegib] + C[C@]1(c2nc3c(C(N)=O)cccc3[nH]2)CCCN1 [Veliparib] (first compound 5 µM, partner dose 7 µM) | 96.1% | 112% | 88.3% | 73% | 111% | 71.4% | 94.6% | 104% | 79.7% | 97.1%
NC1(c2ccc(-c3nc4ccn5c(=O)[nH]nc5c4cc3-c3ccccc3)cc2)CCC1 + O=C(O)[C@@H]1[O][Sb](=[O])([O][Sb]2(=[O])[O][C@H]([C@H](O)CO)[C@H](O)[C@H](C(=O)O)[O]2)[O][C@H]([C@H](O)CO)[C@@H]1O [stibogluconate] (first compound 2 µM, partner dose 10 µM) | 63.1% | 106% | 102% | 77.2% | 89.2% | 83.9% | 80.1% | 83.3% | 103% | 70.1%
NC1(c2ccc(-c3nc4ccn5c(=O)[nH]nc5c4cc3-c3ccccc3)cc2)CCC1 + COc1cc(Nc2ncc(F)c(Nc3ccc4c(n3)NC(=O)C(C)(C)O4)n2)cc(OC)c1OC [Tamatinib] (first compound 2 µM, partner dose 2 µM) | 34.1% | 57% | 88.5% | 53.3% | 72% | 57% | 41.1% | 78.6% | 32.2% | 51.3%
C=C(c1ccc(C(=O)O)cc1)c1cc2c(cc1C)C(C)(C)CCC2(C)C [Bexarotene] + Cn1c(Nc2ccc(C(F)(F)F)cc2)nc2cc(Oc3ccnc(-c4ncc(C(F)(F)F)[nH]4)c3)ccc21 [CHIR265] (first compound 10 µM, partner dose 0.4 µM) | 39.1% | 54.7% | 62.8% | 52.6% | 92.9% | 47.4% | 44.7% | 66.3% | 58.1% | 49%
CCCS(=O)(=O)Nc1ccc(F)c(C(=O)c2c[nH]c3ncc(Cl)cc23)c1F + O=C(Nc1cccc(Cl)c1)Nc1ncc(CCNc2ncnc3ccsc23)s1 [SNS314] (first compound 0.4 µM, partner dose 0.004 µM) | 42.7% | 79.2% | 109% | 119% | 74% | 54.3% | 47.1% | 52% | 71.3% | 69.3%
CS(=O)(=O)c1ccc(C(=O)Nc2ccc(Cl)c(-c3ccccn3)c2)c(Cl)c1 [vismodegib] + NC(=O)Nc1cc(-c2cccc(F)c2)sc1C(=O)N[C@H]1CCCNC1 [AZD7762] (first compound 5 µM, partner dose 0.1 µM) | 54.2% | 78.5% | 100% | 96.8% | 103% | 69.9% | 70.8% | 88.1% | 67.4% | 47.5%
CS(=O)(=O)c1ccc(C(=O)Nc2ccc(Cl)c(-c3ccccn3)c2)c(Cl)c1 [vismodegib] + Cc1cc(Nc2cc(N3CCN(C)CC3)nc(/C=C/c3ccccc3)n2)n[nH]1 [ENMD2076] (first compound 5 µM, partner dose 0.2 µM) | 92.7% | 98.8% | 92.6% | 79.5% | 96.9% | 69.7% | 72.9% | 91.8% | 65.7% | 67.9%
CS(=O)(=O)c1ccc(C(=O)Nc2ccc(Cl)c(-c3ccccn3)c2)c(Cl)c1 [vismodegib] + CC(=O)O[C@@]12CO[C@@H]1C[C@H](O)[C@@]1(C)C(=O)[C@H](O)C3=C(C)[C@@H](OC(=O)[C@H](O)[C@@H](NC(=O)OC(C)(C)C)c4ccccc4)C[C@@](O)([C@@H](OC(=O)c4ccccc4)[C@H]21)C3(C)C [Docetaxel] (first compound 5 µM, partner dose 0.0005 µM) | 14.7% | 13.6% | 37.9% | 44.8% | 57.4% | 41.9% | 36.4% | 44.3% | 24.5% | 35.8%
CS(=O)(=O)c1ccc(C(=O)Nc2ccc(Cl)c(-c3ccccn3)c2)c(Cl)c1 [vismodegib] + CO[C@@H]1[C@H](N(C)C(=O)c2ccccc2)C[C@H]2O[C@]1(C)n1c3ccccc3c3c4c(c5c6ccccc6n2c5c31)C(=O)NC4 [Midostaurin] (first compound 5 µM, partner dose 0.4 µM) | 101% | 66.8% | 68.3% | 61.8% | 78.3% | 74.2% | 55.2% | 51.2% | 49.3% | 84.8%
CN(c1ncccc1CNc1nc(Nc2ccc3c(c2)CC(=O)N3)ncc1C(F)(F)F)S(C)(=O)=O + COCC[n+]1c2c(n(Cc3cnccn3)c1C)C(=O)c1ccccc1C2=O [YM155] (first compound 0.4 µM, partner dose 0.002 µM) | 40.1% | 29.5% | 66.7% | 18.4% | 26.7% | 48% | 67.1% | 55.8% | 77.5% | 32.6%
C=C(c1ccc(C(=O)O)cc1)c1cc2c(cc1C)C(C)(C)CCC2(C)C [Bexarotene] + Nc1ncn([C@H]2C[C@H](O)[C@@H](CO)O2)c(=O)n1 [decitabine] (first compound 10 µM, partner dose 0.5 µM) | 89.3% | 83.2% | 97% | 79.1% | 103% | 77.1% | 81.6% | 77.4% | 68.7% | 98.5%
CS(=O)(=O)c1ccc(C(=O)Nc2ccc(Cl)c(-c3ccccn3)c2)c(Cl)c1 [vismodegib] + Nc1cccc2c1CN(C1CCC(=O)NC1=O)C2=O [lenalidomide] (first compound 5 µM, partner dose 5 µM) | 108% | 115% | 113% | 117% | 101% | 102% | 109% | 101% | 93.5% | 115%
CCCS(=O)(=O)Nc1ccc(F)c(C(=O)c2c[nH]c3ncc(Cl)cc23)c1F + O=C(O)c1ccc(-c2c[nH]c3ncc(-c4ccccc4)cc23)cc1C1CCCC1 [GSK650394] (first compound 0.4 µM, partner dose 0.8 µM) | 47% | 67.7% | 97.5% | 69.5% | 86.6% | 64.5% | 58.8% | 59.8% | 65.1% | 63.6%
